For at least one compound, name, drawing or mass did not settle the structure.
What follows are compounds tested against [35S]-TBPS binding, rat brain cortical membranes (assay: Steroid inhibition of TBPS binding ([35S]-TBPS radioligand displacement)). Settings: 3 nM [35S]-TBPS, 5 μM GABA.
Description: TBPS binding assays using rat brain cortical membranes in the presence of 5 μM GABA has been described (Gee et al, J. Pharmacol. Exp. Then 1987, 241, 346-353; Hawkinson et al, Mol. Pharmacol. 1994, 46, 977-985; Lewin, A. H et al., Mol. Pharmacol. 1989, 35, 189-194).
Briefly, cortices are rapidly removed following decapitation of carbon dioxide-anesthetized Sprague-Dawley rats (200-250 g). The cortices are homogenized in 10 volumes of […] using a glass/teflon homogenizer and centrifuged at 1500×g for 10 min at 4° C. The resultant supernatants are centrifuged at 10,000×g for 20 min at 4° C. to obtain the P2 pellets. The P2 pellets are resuspended in 200 mM NaCl/50 mM Na—K phosphate pH 7.4 buffer and centrifuged at 10,000×g for 10 min at 4° C. This washing procedure is repeated twice and the pellets are resuspended in 10 volumes of buffer. Aliquots (100 μL) of the membrane suspensions are incubated with 3 nM [^35S]-TBPS and 5 μL aliquots of test drug dissolved in dimethyl sulfoxide (DMSO) (final 0.5%) in the presence of 5 μM GABA. The incubation is brought to a final volume of 1.0 mL with buffer. […] Following a 90 min incubation at room temp, the assays are terminated by filtration through glass fiber filters (Schleicher and Schuell No. 32) using a cell harvester (Braudel) and rinsed three times with ice-cold buffer. Filter bound radioactivity is measured by liquid scintillation spectrometry. Non-linear curve fitting of the overall data for each drug averaged for each concentration is done using Prism (GraphPad).
Various compounds are or can be screened to determine their potential as modulators of [^35S]-TBPS binding in vitro. These assays are or can be performed in accordance with the above discussed procedures.

| Compound | IC50 [nM] |
| --- | --- |
| CO[C@H]1C[C@@]2(C)[C@@H](CC[C@@H]3[C@@H]2CC[C@]2(C)[C@@H](C(=O)CN4CCOCC4)CC[C@@H]32)C[C@@H]1O [Compound 1] | 100 to 500 |
| CO[C@H]1C[C@@]2(C)[C@@H](CC[C@@H]3[C@@H]2CC[C@]2(C)[C@@H](C(=O)Cn4nccn4)CC[C@@H]32)C[C@@H]1O [Compound 2] | 10 to 50 |
| CO[C@H]1C[C@@]2(C)[C@@H](CC[C@@H]3[C@@H]2CC[C@]2(C)[C@@H](C(=O)Cn4ccnn4)CC[C@@H]32)C[C@@H]1O [Compound 3] | 100 to 500 |
| CO[C@H]1C[C@]2(C)[C@@H](C(=O)Cn3nccn3)CC[C@H]2[C@@H]2CC[C@H]3C[C@H](O)CC[C@]3(C)[C@H]21 [Compound 4] | 50 to 100 |
| CO[C@H]1C[C@]2(C)[C@@H](C(=O)Cn3ccnn3)CC[C@H]2[C@@H]2CC[C@H]3C[C@H](O)CC[C@]3(C)[C@H]21 [Compound 5] | 100 to 500 |
| CCO[C@H]1C[C@@]2(C)[C@@H](CC[C@H]3[C@@H]4CC[C@H](C(=O)Cn5nccn5)[C@@]4(C)CC(=O)[C@@H]32)C[C@@H]1O [Compound 6] | 100 to 500 |
| CCO[C@H]1C[C@@]2(C)[C@@H](CC[C@H]3[C@@H]4CC[C@H](C(=O)Cn5ccnn5)[C@@]4(C)CC(=O)[C@@H]32)C[C@@H]1O [Compound 7] | > 500 |
| C[C@]12CC[C@@H](O)C[C@@H]1CC[C@@H]1[C@@H]2[C@@H](O)C[C@]2(C)[C@@H](C(=O)Cn3nccn3)CC[C@@H]12 [Compound 8] | > 500 |
| C[C@@]1(O)CC[C@@]2(C)[C@H](CC[C@@H]3[C@@H]2CC[C@]2(C)[C@@H](C(=O)Cn4nc5ccccc5n4)CC[C@@H]32)C1 [Compound 11] | < 10 |
| C[C@@]1(O)CC[C@@]2(C)[C@H](CC[C@@H]3[C@@H]2CC[C@]2(C)[C@@H](C(=O)Cn4nnc5ccccc54)CC[C@@H]32)C1 [Compound 12] | < 10 |
| COc1ccc2nn(CC(=O)[C@H]3CC[C@H]4[C@@H]5CC[C@@H]6C[C@](C)(O)CC[C@]6(C)[C@H]5CC[C@]34C)nc2c1 [Compound 14] | < 10 |
| COc1ccc2c(c1)nnn2CC(=O)[C@H]1CC[C@H]2[C@@H]3CC[C@@H]4C[C@](C)(O)CC[C@]4(C)[C@H]3CC[C@]12C [Compound 15] | < 10 |
| COc1ccc2nnn(CC(=O)[C@H]3CC[C@H]4[C@@H]5CC[C@@H]6C[C@](C)(O)CC[C@]6(C)[C@H]5CC[C@]34C)c2c1 [Compound 16] | < 10 |
| C[C@@]1(O)CC[C@@]2(C)[C@H](CC[C@@H]3[C@@H]2CC[C@]2(C)[C@@H](C(=O)Cn4nc5cccc(F)c5n4)CC[C@@H]32)C1 [Compound 17] | 10 to 50 |
| C[C@@]1(O)CC[C@@]2(C)[C@H](CC[C@@H]3[C@@H]2CC[C@]2(C)[C@@H](C(=O)Cn4nnc5c(F)cccc54)CC[C@@H]32)C1 [Compound 18] | < 10 |
| C[C@@]1(O)CC[C@@]2(C)[C@H](CC[C@@H]3[C@@H]2CC[C@]2(C)[C@@H](C(=O)Cn4ccc(C(F)(F)F)n4)CC[C@@H]32)C1 [Compound 19] | < 10 |
| C[C@@]1(O)CC[C@@]2(C)[C@H](CC[C@@H]3[C@@H]2CC[C@]2(C)[C@@H](C(=O)Cn4nc5ccc(F)cc5n4)CC[C@@H]32)C1 [Compound 21] | < 10 |
| C[C@@]1(O)CC[C@@]2(C)[C@H](CC[C@@H]3[C@@H]2CC[C@]2(C)[C@@H](C(=O)Cn4nnc5ccc(F)cc54)CC[C@@H]32)C1 [Compound 22] | < 10 |
| C[C@@]1(O)CC[C@@]2(C)[C@H](CC[C@@H]3[C@@H]2CC[C@]2(C)[C@@H](C(=O)Cn4nnc5cc(F)ccc54)CC[C@@H]32)C1 [Compound 23] | < 10 |
| C[C@@]1(O)CC[C@@]2(C)[C@H](CC[C@@H]3[C@@H]2CC[C@]2(C)[C@@H](C(=O)Cn4cc5ccccc5n4)CC[C@@H]32)C1 [Compound 26] | < 10 |
| C[C@@]1(O)CC[C@@]2(C)[C@H](CC[C@@H]3[C@@H]2CC[C@]2(C)[C@@H](C(=O)Cn4ncc5ccccc54)CC[C@@H]32)C1 [Compound 27] | 10 to 50 |
| C[C@@]1(O)CC[C@@]2(C)[C@H](CC[C@@H]3[C@@H]2CC[C@]2(C)[C@@H](C(=O)Cn4nc5cc(F)cc(F)c5n4)CC[C@@H]32)C1 [Compound 28] | < 10 |
| C[C@@]1(O)CC[C@@]2(C)[C@H](CC[C@@H]3[C@@H]2CC[C@]2(C)[C@@H](C(=O)Cn4nnc5cc(F)cc(F)c54)CC[C@@H]32)C1 [Compound 29] | < 10 |
| C[C@@]1(O)CC[C@@]2(C)[C@H](CC[C@@H]3[C@@H]2CC[C@]2(C)[C@@H](C(=O)Cn4nnc5c(F)cc(F)cc54)CC[C@@H]32)C1 [Compound 30] | 10 to 50 |

| Compound | IC50 [nM] |
| --- | --- |
| Cc1nnnn1CC(=O)[C@H]1CC[C@H]2[C@@H]3CC[C@@H]4C[C@](C)(O)CC[C@]4(C)[C@H]3CC[C@]12C [Compound 31] | 10 to 50 |
| Cc1nnn(CC(=O)[C@@H]2CC[C@H]3[C@@H]4CC[C@@H]5C[C@](C)(O)CC[C@]5(C)[C@H]4CC[C@]23C)n1 [Compound 32] | < 10 |
| C[C@@]1(O)CC[C@@]2(C)[C@H](CC[C@@H]3[C@@H]2CC[C@]2(C)[C@@H](C(=O)Cn4cc5cc(Cl)ccc5n4)CC[C@@H]32)C1 [Compound 33] | 10 to 50 |
| C[C@@]1(O)CC[C@@]2(C)[C@H](CC[C@@H]3[C@@H]2CC[C@]2(C)[C@@H](C(=O)Cn4ncc5cc(Cl)ccc54)CC[C@@H]32)C1 [Compound 34] | 10 to 50 |
| C[C@@]1(O)CC[C@@]2(C)[C@H](CC[C@@H]3[C@@H]2CC[C@]2(C)[C@@H](C(=O)Cn4nc5ccc(Cl)cc5n4)CC[C@@H]32)C1 [Compound 35] | < 10 |
| C[C@@]1(O)CC[C@@]2(C)[C@H](CC[C@@H]3[C@@H]2CC[C@]2(C)[C@@H](C(=O)Cn4nnc5ccc(Cl)cc54)CC[C@@H]32)C1 [Compound 36] | < 10 |
| C[C@@]1(O)CC[C@@]2(C)[C@H](CC[C@@H]3[C@@H]2CC[C@]2(C)[C@@H](C(=O)Cn4nnc5cc(Cl)ccc54)CC[C@@H]32)C1 [Compound 37] | 10 to 50 |
| C[C@@]1(O)CC[C@@]2(C)[C@H](CC[C@@H]3[C@@H]2CC[C@]2(C)[C@@H](C(=O)Cn4cc5cc(F)ccc5n4)CC[C@@H]32)C1 [Compound 38] | 10 to 50 |
| C[C@@]1(O)CC[C@@]2(C)[C@H](CC[C@@H]3[C@@H]2CC[C@]2(C)[C@@H](C(=O)Cn4ncc5cc(F)ccc54)CC[C@@H]32)C1 [Compound 39] | 10 to 50 |
| CCOC(=O)c1ccn(CC(=O)[C@H]2CC[C@H]3[C@@H]4CC[C@H]5C[C@H](O)[C@@H](OCC)C[C@]5(C)[C@H]4CC[C@]23C)n1 [Compound 40] | < 10 |
| CO[C@H]1C[C@@]2(C)[C@@H](CC[C@@H]3[C@@H]2CC[C@]2(C)[C@@H](C(=O)Cn4nccn4)CC[C@@H]32)C[C@]1(C)O [Compound 42] | 10 to 50 |
| C[C@@]1(O)CC[C@@]2(C)[C@H](CC[C@@H]3[C@@H]2CC[C@]2(C)[C@@H](C(=O)Cn4cc5ccc(Cl)cc5n4)CC[C@@H]32)C1 [Compound 47] | 10 to 50 |
| C[C@@]1(O)CC[C@@]2(C)[C@H](CC[C@@H]3[C@@H]2CC[C@]2(C)[C@@H](C(=O)Cn4ncc5ccc(Cl)cc54)CC[C@@H]32)C1 [Compound 48] | 10 to 50 |
| C[C@@]1(O)CC[C@@]2(C)[C@H](CC[C@@H]3[C@@H]2CC[C@]2(C)[C@@H](C(=O)Cn4cc5cc(Cl)cnc5n4)CC[C@@H]32)C1 [Compound 50] | < 10 |
| C[C@@]1(O)CC[C@@]2(C)[C@H](CC[C@@H]3[C@@H]2CC[C@]2(C)[C@@H](C(=O)Cn4nnc5c(F)c(Cl)ccc54)CC[C@@H]32)C1 [Compound 51] | 10 to 50 |
| C[C@@]1(O)CC[C@@]2(C)[C@H](CC[C@@H]3[C@@H]2CC[C@]2(C)[C@@H](C(=O)Cn4nnc5ccc(Cl)c(F)c54)CC[C@@H]32)C1 [Compound 52] | 10 to 50 |
| C[C@@]1(O)CC[C@@]2(C)[C@H](CC[C@@H]3[C@@H]2CC[C@]2(C)[C@@H](C(=O)Cn4nc5ccc(Cl)c(F)c5n4)CC[C@@H]32)C1 [Compound 53] | < 10 |
| C[C@@]1(O)CC[C@@]2(C)[C@H](CC[C@@H]3[C@@H]2CC[C@]2(C)[C@@H](C(=O)Cn4ncnn4)CC[C@@H]32)C1 [Compound 54] | < 10 |
| C[C@@]1(O)CC[C@@]2(C)[C@H](CC[C@@H]3[C@@H]2CC[C@]2(C)[C@@H](C(=O)Cn4cnnn4)CC[C@@H]32)C1 [Compound 55] | 10 to 50 |
| C[C@@]1(O)CC[C@@]2(C)[C@H](CC[C@@H]3[C@@H]2CC[C@]2(C)[C@@H](C(=O)Cn4cc5nccnc5n4)CC[C@@H]32)C1 [Compound 64] | 50 to 100 |
| C[C@@]1(O)CC[C@@]2(C)[C@H](CC[C@@H]3[C@@H]2CC[C@]2(C)[C@@H](C(=O)Cn4ncc5nccnc54)CC[C@@H]32)C1 [Compound 65] | 10 to 50 |
| C[C@@]1(O)CC[C@@]2(C)[C@H](CC[C@@H]3[C@@H]2CC[C@]2(C)[C@@H](C(=O)Cn4cc5ccc(F)cc5n4)CC[C@@H]32)C1 [Compound 66] | 10 to 50 |
| C[C@@]1(O)CC[C@@]2(C)[C@H](CC[C@@H]3[C@@H]2CC[C@]2(C)[C@@H](C(=O)Cn4ncc5ccc(F)cc54)CC[C@@H]32)C1 [Compound 67] | 10 to 50 |
| C[C@@]1(O)CC[C@@]2(C)[C@H](CC[C@@H]3[C@@H]2CC[C@]2(C)[C@@H](C(=O)Cn4nnc5cc(F)c(F)cc54)CC[C@@H]32)C1 [Compound 68] | 10 to 50 |

Source: patent US11530237B2, “Compositions and methods for treating CNS disorders” (Sage Therapeutics, Inc., priority 2014, dated 2022)
